Experimental data: PubChem BioAssay AID540317 (National Center for Advancing Translational Sciences (NCATS), 2011)
In all, about 390,000 compounds went through this assay and about 2,200 (0.56%) were called active. Inconclusive means that the source gave no clear call. Such entries were picked first, then a sample of the others. Calls come from the whole dose curve; as a rule, active = well fitted inhibition curve with a large enough effect; inconclusive = small, poorly fitted or top-dose-only effect; inactive = no such curve, though single readings can be large or run the other way. Potencies beside an inconclusive call are fits to weak or partial responses and may not hold up.

target: Chromobox protein homolog 1 (Homo sapiens) (UniProt P83916); experiment: HTS for Inhibitors of HP1-beta Chromodomain Interactions with Methylated Histone Tails; details: AlphaScreen HP1-beta / biotin-H3K9me3 peptide binding; series mostly up to 114 µM; activity change, negative = inhibition: at the top concentration; note: nearly all actives have a fitted effect of over 70% in size
UniProt P83916, sequence (P83916 whole entry, looked up): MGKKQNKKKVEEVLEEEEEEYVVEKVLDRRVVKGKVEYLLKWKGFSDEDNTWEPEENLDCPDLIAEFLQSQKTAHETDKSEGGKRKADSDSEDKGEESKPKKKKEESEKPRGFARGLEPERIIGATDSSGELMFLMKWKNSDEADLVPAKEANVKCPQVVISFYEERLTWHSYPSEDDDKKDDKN
In short: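 Compound inhibition of the preformed complex between 50 nM HP1-beta and 50 nM biotinylated H3K9me3 peptide was read by AlphaScreen. Buffer was PBS pH 7.4 with 0.01% Tween-20. Incubations ran 30 min at room temperature, with 10 ug/mL donor/acceptor beads.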
Potency is the fitted concentration of half-maximal effect; tags give direction and shape of the fitted curve.

SMILES	activity change, negative = inhibition	Potency
N#CC(=Cc1ccc(O)cc1)C(N)=C(C#N)C#N	inactive: 32.7%	
CN1CC(c2ccccn2)C2(SC(=S)N(Cc3ccccc3)C2=O)C12C(=O)Nc1ccccc12 (stereo unspecified)		inconclusive: 50.1 µM [inhibitor, partial curve]
O=C1N=C(N2CCOCC2)S/C1=C/c1ccc(-c2ccccc2Cl)o1	inactive: 13%	
CCNc1nc(-c2ccc(Cl)cc2)cs1	inactive: -20%	
COc1ccc(OC)c(Nc2nc(-c3sc(C)nc3C)cs2)c1		inconclusive: 56.2 µM [inhibitor, partial curve]
O=C(NN1C(=O)/C(=C/c2ccc(O)c(O)c2)SC1=S)c1ccccc1		inconclusive: 4.47 µM [inhibitor, full curve]
Cc1cccc(C(=O)NCC(=O)N2CCN(c3ccccn3)CC2)c1	inactive: 14.1%	
CSc1nc(=S)c2[nH]c(=S)[nH]c2[nH]1		active: 20 µM
C[N+]1(C)CCC(=C2c3ccccc3CC(=O)c3sccc32)CC1	inactive: 20.7%	
C[C@H](NC(=O)c1nc[nH]c1C(=O)N1CCN(c2ccccc2)CC1)C(=O)OCc1ccccc1	inactive: 21%	
COc1ccc(-c2c(-c3ccc(OCC(=O)NN)cc3O)n[nH]c2C(F)(F)F)cc1		inconclusive: 35.5 µM [inhibitor, single point]
COc1ccc(C(=O)NCc2nnc(SCC(=O)c3ccccc3)o2)cc1	inactive: 40.2%	
O=C(O)c1ccc(-n2cccc2/C=C2/SC(=O)N(CC(=O)N3CCCC3)C2=O)cc1		active: 14.1 µM
CN(CC(=O)Nc1ccc(Cl)c(Cl)c1)C1CCCCC1		inconclusive: 14.1 µM [inhibitor, partial curve, poor fit]
CC(C)OC(=O)CC(=O)CSc1nc(-c2ccc(F)cc2)cc(-c2ccccc2)c1C#N	inactive: 27.3%	
COc1ccc(C(=O)CSc2nnc(CNC(=O)c3ccco3)n2C)cc1	inactive: -1.81%	
CN(C)CCCNC(=O)c1ccc(Oc2ccccc2)cc1		inconclusive: 89.1 µM [inhibitor, single point]
COc1ccc(C(=O)NC(=S)Nc2ccccc2N2CCCCC2)cc1[N+](=O)[O-]		inconclusive: 35.5 µM [inhibitor, partial curve]

SMILES	activity change, negative = inhibition	Potency
CCn1cc(C(=O)NCCc2ccc(C)cc2)c(=O)c2cc(S(=O)(=O)N3CCC(C)CC3)ccc21	inactive: 20.4%	
Cn1c(-c2ccc(F)cc2)cnc1NCc1cccc([N+](=O)[O-])c1		inconclusive: 31.6 µM [inhibitor, partial curve]
C/C(=C\c1ccccc1)CN1CCN(c2ccccc2F)CC1		inconclusive: 56.2 µM [inhibitor, single point]
NC(=S)N=Nc1c(O)[nH]c2ccccc12	inactive: 15.1%	
COc1ccccc1CNCc1ccc(OC)c(OC)c1OC		inconclusive: 79.4 µM [inhibitor, single point]
N#C/C(=C(/O)CSc1nnc(Cc2cccs2)n1C1CCCCC1)c1nc2ccccc2[nH]1	inactive: 28.1%	
NC(=O)C1CCN(c2oc(-c3cccs3)nc2S(=O)(=O)c2ccc(Br)cc2)CC1		inconclusive: 35.5 µM [inhibitor, partial curve]
O=CC(O)C1OC(=O)C(O)C1O (stereo unspecified)		inconclusive: 14.1 µM [inhibitor, full curve, poor fit]
Cc1ccc(C)c(OCC(=O)Nc2ccc(S(=O)(=O)Nc3ccccn3)cc2)c1	inactive: -15.8%	
COc1ccccc1C(C)N(C)Cc1nc(COc2ccccc2)no1 (stereo unspecified)	inactive: 55.6%	
COCCCNCCCCOc1ccccc1-c1ccccc1		inconclusive: 70.8 µM [inhibitor, single point]
COCc1c(C(=O)N2CCc3ccccc32)oc2ccccc12		inconclusive: 89.1 µM [inhibitor, single point]
CCOC(=O)CSC1=C(C#N)C(=O)NC(c2ccc(OC)cc2)S1 (stereo unspecified)	inactive: 8.83%	
COc1ccc(-c2ccc(-c3noc(C(C)C)n3)c(OC)n2)cc1	inactive: 175%	
COc1cccc(C(C#N)N2CCCCC2)c1O (stereo unspecified)	inactive: 9.44%	
NCC(O)c1ccc(O)c(O)c1 (stereo unspecified)		inconclusive: 70.8 µM [inhibitor, partial curve]
COc1ccc(C2=C(N3CCN(c4cc(C)ccc4C)CC3)c3ccccc3C2=O)cc1		inconclusive: 8.91 µM [inhibitor, full curve, poor fit]
O=C(c1ccc2c(c1)OCO2)N1CCN(c2ccccn2)CC1		inconclusive: 39.8 µM [inhibitor, single point]
